Experiment in all cases: Primary Screen for Target Class Profiling of Small Molecule Inhibitors of Methyltransferases
Experiment [1] deals with Glycine N-methyltransferase (Homo sapiens) (UniProt Q14749). The note with it: purified enzyme, MTase-Glo SAH luminescence; measured here: GNMT inhibition; at 40 µM; stronger effect = lower value. From the text:
(§1) PI: Matthew D. Hall Ph.D. and Quinlin M. Hanson Ph.D.
(§2) National Center for Advancing Translational Sciences (NCATS)
(§3) National Institute of Health (NIH), Rockville, MD
(§4) Target class profiling (TCP) is a chemical biology approach amenable to investigating understudied biological targets. TCP is achieved by developing a generalizable assay platform and applying it to screen a curated set of compound libraries against representative members of a target class. Small molecule methyltransferases (SMMTase) are a subclass of methyltransferase that act on metabolites to modulate signaling pathways, metabolize xenobiotics, or balance the available methyl pool. We screened four curated libraries totaling 27,574 unique compounds against the SMMTases nicotinamide N-methyltransferase (NNMT), phenylethanolamine N-methyltransferase (PNMT), histamine N-methyltransferase (HNMT), glycine N-methyltransferase (GNMT), catechol O-methyltransferase (COMT), and guanidinoacetate N-methyltransferase (GAMT). The data generated by this TCP can be leveraged for informed tool molecule development. For example, in the associated publication we identified a chemotype of HNMT-selective inhibitors. Additionally, we identified a putative SMMTase-selective inhibitor with potential as a tool molecule for studying broader methyltransferase biology.
(§5) High-through put screening assays were developed at the National Center for Advancing Translational Science (NCATS) for the enzymes NNMT, PNMT, HNMT, GNMT, COMT, and GAMT. Enzymatic activity was measured as a function of SAM cofactor conversion using the MTase Glo kit (Promega) for all enzymes. All assays were performed in 1536-well format with substrates and SAM concentrations at KM values. Enzyme concentration and assay timing were optimized for 10-20% SAM conversion. Initial screening of 27,574 compounds was done as single-point assays using the highest compound concentration (40 uM). […] These compounds were replated in 11-point dose response and assayed against NNMT, PNMT, HNMT, GNMT, COMT, GAMT, and a counter-assay. The IC50 and efficacy (maximal response) values were determined for each dose-response curve. These values are also accounted for in the area under the curve (AUC) values.
(§6) PROTOCOL TABLE (as described by Inglese J, Shamu CE and Guy RK. 2007)
(§7) SEQUENCE No. (e.g., 1, 2, 3, etc.); […] (e.g., Cells, Incubation, Reagent, etc.); VALUE; DESCRIPTION.
(§8) 1; Reagent; 2 uL; SMMTase Enzyme (2x) in reaction buffer, columns 1- 48.
(§9) 2; Reagent; 1 uL; SAM (4x) in reaction buffer, columns 1-48.
(§10) 3; Controls; 23 nL; DMSO in column 4; sinefungin in DMSO (0 uM - 40 uM) in 7-point 1:2 dilution series (n = 2) in column 2.
(§11) 4; Compounds; 23 nL; Columns 5-48.
(§12) 5; Reagent; 1 uL; Substrate (4x) in reaction buffer, columns 2-48.
(§13) 6; Time; 20-30 min; Incubation.
(§14) 7; Reagent; 1 uL; MTase-Glo reagent (5X), columns 1-48.
(§15) 8; Time; 30 min; Incubation.
(§16) 9; Reagent; 5 uL; MTase-Glo Detection reagent, columns 1-48.
(§17) 10; Time; 30 min; Incubation, luminescence evolution.
(§18) 11; Detection; Luminescence; ViewLux uHTS Microplate Imager (PerkinElmer).
(§19) NOTES (numbers refer to Sequence numbers above)
(§20) 1, 2, 5. White Medium Binding Greiner 1536-well plates (Cat #789175-F, Greiner Bio-One, Monroe, NC); Reaction buffer: 50 mM Tris, pH 8.0, 3 mM MgCl2, 1 mM EDTA, 50 mM NaCl, 1 mM DTT, and 0.1 mg/mL BSA. Evaporation was prevented by covering assay plates with metal lids containing holes to allow gas diffusion.
(§21) 1. Six SMMTase were profiled: HNMT, GNMT, PNMT, COMT, NNMT, GAMT
(§22) 5. The corresponding substrate was used for each enzyme: HNMT - 5.3 uM Histamine; GNMT - >500 uM Glycine; PNMT - 16.2 uM Norephinephrine; COMT - 13.7 uM Norephinephrine; NNMT - 3.8 uM Nicotinamide; GAMT - 2.5 uM Guanidinoacetate.6, 8, 10. Room temperature
(§23) 6. Final reaction conditions: 10 nM COMT, 5 uM SAM, 15 uM norepinephrine, 50 mM Tris, pH 8.0, 3 mM MgCl2, 1 mM EDTA, 50 mM NaCl, 1 mM DTT, and 0.1 mg/mL BSA; refer to tables 2 and S1 for specific timing.
8. […]

Experiment [2] deals with Guanidinoacetate N-methyltransferase (Homo sapiens) (UniProt Q14353). The note with it: purified enzyme, MTase-Glo SAH luminescence; measured here: GAMT inhibition; at 40 µM; stronger effect = lower value.
Description: as §1, §2, §3, §4, §5, §6, §7, §8, §9, §10, §11, §12, §13, §14, §15, §16, §17, §18, §19, §20, §21, §22, §23
8. […]

Experiment [3] deals with Histamine N-methyltransferase (Homo sapiens) (UniProt P50135). Particulars: purified enzyme, MTase-Glo SAH luminescence; measured here: HNMT inhibition; at 40 µM; stronger effect = lower value.
Description: as §1, §2, §3, §4, §5, §6, §7, §8, §9, §10, §11, §12, §13, §14, §15, §16, §17, §18, §19, §20, §21, §22, §23
8. […]

Experiment [4] addresses Nicotinamide N-methyltransferase (Homo sapiens) (UniProt P40261). The note with it: purified enzyme, MTase-Glo SAH luminescence; measured here: NNMT inhibition; at 40 µM; stronger effect = lower value.
Description: as §1, §2, §3, §4, §5, §6, §7, §8, §9, §10, §11, §12, §13, §14, §15, §16, §17, §18, §19, §20, §21, §22, §23
8. […]

Experiment [5] has as its target Phenylethanolamine N-methyltransferase (Homo sapiens) (UniProt P11086). Particulars: purified enzyme, MTase-Glo SAH luminescence; measured here: PNMT inhibition; at 40 µM; stronger effect = lower value.
Description: as §1, §2, §3, §4, §5, §6, §7, §8, §9, §10, §11, §12, §13, §14, §15, §16, §17, §18, §19, §20, §21, §22, §23
8. […]

Several values for one entry are separate records, joined by “and”; a condition that tells them apart may be missing. Equal values may be shown once. The list shows a part of the results. Further columns of the screen follow, without active or inactive calls.
% is set by controls: 0 for no effect and ±100 for the full control effect.

Turning to `CCN1CCN(C(=O)Cc2ccc(Nc3ncc(F)c(Nc4ccc(C(=O)Nc5ccccc5Cl)cc4)n3)cc2)CC1`, the activity change, negative = inhibition in experiment [1] was -15.9%; in experiment [2], 5.88%; in experiment [3], -19.5%; in experiment [4], -19.1%; in experiment [5], -8.71%.
On to `CC(O)(CS(=O)(=O)c1ccc(F)cc1)C(=O)Nc1ccc(C#N)c(C(F)(F)F)c1` (stereo not given), for which the activity change, negative = inhibition in experiment [1] was -4.11% and -3.07%; in experiment [2] it was 5.59%; in experiment [3] it was 0.029% and 6.99%; in experiment [4] it was -8.21%; in experiment [5] it was 7.37%.
With `COC(=O)C12C(=O)C(C)(O)C(=O)C1(C)C(C)=CC1C34CCC(OC3=O)C(C)(CO)C4CCC12C` (stereo not given), the activity change, negative = inhibition is -1.85% in experiment [1]; 5.9% in experiment [2]; 3.14% in experiment [3]; -8.97% in experiment [4]; 1.93% in experiment [5].
As to `Cc1ccc(NC(=O)N2Cc3ccccc3-n3cccc3C2c2ccc(F)cc2)cc1` (stereo not given), the activity change, negative = inhibition in experiment [1] came out at 4.93%; in experiment [2], 0.767%; in experiment [3], 0.486%; in experiment [4], 2.59%; in experiment [5], 5.93%.
Consider `NC(=O)c1ccc(N2CC3CCC(C2)N3CC(F)(F)F)nn1`, for which the activity change, negative = inhibition in experiment [1] was -6.57%; in experiment [2], -8.49%; in experiment [3], -20.4%; in experiment [4] it was -59.1%; in experiment [5] it was -12.6%.
In the case of `Cn1cccc1C(=O)C(=O)N1C[C@H](c2cc(F)cc(F)c2)[C@@H]2[C@H]1C1CCN2CC1`, the activity change, negative = inhibition was -8.01% in experiment [1]; -6.02% in experiment [2]; -7.36% in experiment [3]; -15.1% in experiment [4]; 0.781% in experiment [5].
Consider `COc1ccc(NC(=O)N2Cc3ccccc3-n3cccc3C2C)cc1` (stereo not given), for which the activity change, negative = inhibition in experiment [1] was 4.54%; in experiment [2], 2.72%; in experiment [3], -3.13%; in experiment [4], -7.32%; in experiment [5], 1.52%.
For `COc1ccc(CC2C(=O)NC(C)C(=O)N(C)C3Cc4ccc(cc4)Oc4cc(ccc4OC4OC(CO)C(O)C(O)C4O)CC(C(=O)NC(C)C(=O)NC(CCC(=O)O)C(=O)N2C)N(C)C3=O)cc1` (stereo not given), the activity change, negative = inhibition in experiment [1] is -4.26%; in experiment [2] it was -8.45%; in experiment [3] it was 1.51%; in experiment [4] it was -18%; in experiment [5] it was -15.7%.
On to `Cc1ccc(NC(=O)N2Cc3ccccc3-n3cccc3C2c2cccc(Cl)c2)cc1` (stereo not given), for which the activity change, negative = inhibition is 3.67% in experiment [1]; 7.83% in experiment [2]; -1.29% in experiment [3]; 1.07% in experiment [4]; 3.34% in experiment [5].
With `Cc1ncsc1CCCl`, the activity change, negative = inhibition is -8.09% in experiment [1]; 1.87% in experiment [2]; -1.77% in experiment [3]; -8.65% in experiment [4]; -2.83% in experiment [5].
For `CC(=O)C1CCC2C3CCC4C[C@@H](O)CCC4(C)C3CCC12C` (stereo not given in full), the activity change, negative = inhibition in experiment [1] is -7.23%; in experiment [2], 12%; in experiment [3], 2.52%; in experiment [4] it was -23.5%; in experiment [5] it was -5.26%.
`O=C(Nc1cccc(Cl)c1)N1Cc2ccccc2-n2cccc2C1c1ccccc1` (stereo not given): the activity change, negative = inhibition in experiment [1] was 5.81%; in experiment [2], 0%; in experiment [3], -0.517%; in experiment [4] it was 1.87%; in experiment [5], 4.6%.
For `CC1c2cccn2-c2ccccc2CN1C(=O)Nc1ccc(Br)cc1` (stereo not given), in that order: 13.1%, 3.1%, 7.13%, 4.62% and 8.72%.
For the molecule `CCc1ccc(C2c3cccn3-c3ccccc3CN2C(=O)Nc2ccc(F)c(Cl)c2)cc1` (stereo not given), the activity change, negative = inhibition in experiment [1] worked out at 14.7%; in experiment [2], 3.68%; in experiment [3], 8.27%; in experiment [4], 8.29%; in experiment [5], 7.95%.
On to `COc1ccc(C(=O)N2C[C@@H]3C[C@H](C2)c2ccc(NC(=O)CN(C)C)c(=O)n2C3)cc1`, for which the activity change, negative = inhibition in experiment [1] is -1.43%; in experiment [2], -0.194%; in experiment [3] it was -0.154%; in experiment [4], 1.29%; in experiment [5], 1.73%.
As for `CN(C)c1ccc(C2c3cccn3-c3ccccc3CN2C(=O)Nc2ccc(Cl)cc2)cc1` (stereo not given), the activity change, negative = inhibition in experiment [1] was 10.8%; in experiment [2], 0%; in experiment [3], 3.85%; in experiment [4], 7.86%; in experiment [5], 4.99%.
Regarding `CCCN1CCO[C@H]2c3cc(O)ccc3OC[C@@H]21`, the activity change, negative = inhibition in experiment [1] was 0.857%; in experiment [2], 5.3%; in experiment [3], 10.6%; in experiment [4], -8.47%; in experiment [5] it was 6.08%.
With `CC(C)Oc1cccnc1N(C)C1CCN(Cc2ccccc2)CC1`, the activity change, negative = inhibition is -12.3% in experiment [1]; 3.87% in experiment [2]; -13.2% in experiment [3]; -5.43% in experiment [4]; 8.04% in experiment [5].

Source of the values: PubChem BioAssay AID1745853 (National Center for Advancing Translational Sciences (NCATS), 2022).
